Source: the RNAGym collection of RNA variant scans (doi:10.7554/elife.90254)
The source gives no read counts; variants with many changes may rest on few reads.

B1: LINE1-mini (parent)
chain: GGCAGAGCUCAACACAGCGUGGCAAAGUGGCUGUGGCUAGACUGCC

Variants of: B1
Assay: self-cleavage, relative activity (ratio to wild type); higher = more cleavage; in vitro, sequencing; the parent is a self-cleaving ribozyme

Row | Variant | self-cleavage
1 | GACAGAGCACAACACAGCGUGGCAUAGUGCAUGUGGCUAGACUGCU [G2A U9A A25U G30C C31A C46U] | 0.06
2 | GACAGAGCUCAACACAGCGUGCCAAGGUGGCUGUGGCUAGCCUGCC [G2A G22C A26G A41C] | 0.04
3 | GACAGAGCCCAACACAGCGUGGCAAAGUGGCUUUGGCUAGACUGCC [G2A U9C G33U] | 0.06
4 | GACAGAGCUCAACACAGCGUGCCAAAUUGGCUGUGGCUAGACGGCC [G2A G22C G27U U43G] | 0.09
5 | GACAAAGCUCCACACAGAGUGGCAAAGUGGCUGUGGCUAGACUGCC [G2A G5A A11C C18A] | 0.05
6 | GACAGAACUCAACACAGCGAGUCAAAGUGAGUGUGGCUAGACUGCC [G2A G7A U20A G22U G30A C31G] | 0.17
7 | GACAGAGCUCAACACAGCGUGGCAAAGUUGCCGUGGCUAGACUGCC [G2A G29U U32C] | 0.4
8 | GACAGAGCUCAACACAGCGUGGGAAAGUGGCUGUGGCUAGACUGGC [G2A C23G C45G] | 2.92
9 | GACAGAGCUCAACACAGCGUAGCAAAGUGGCUGUGGCUAUACUGCC [G2A G21A G40U] | 1.19
10 | GACAGAGCCCAACACAGCGUGGCAAAGUCGCUCUGGCUAGACUGCC [G2A U9C G29C G33C] | 0.05
11 | GACACAGCGCAACACAGCGUGGCAAAAUGGCUGUGGCUAGACUGCC [G2A G5C U9G G27A] | 0.08
12 | GACAGAGCUCAACACAGCCUGGCAAAGUAGCUGUGGCUAGACUGCC [G2A G19C G29A] | 0.07
13 | GACACAGCUCAACACAACGUGGCAAAGUAGCUGUGGCUAGACUGCC [G2A G5C G17A G29A] | 0.05
14 | GACAGAGCUCAACACACCGUGGCAAAGUGGCUGUGCCUAGACUGCC [G2A G17C G36C] | 0.08
15 | GACAGAGCUCAACACAGGGGGGCAAAGUGGCUGUGGCAAGACUGCC [G2A C18G U20G U38A] | 0.03
16 | GACAGAACUCAACACAGCGUGGCAAAGUGGCCGUGACUACACUGCC [G2A G7A U32C G36A G40C] | 1.35
17 | GACAGAGCUCAACACAACGUGGCAAAGUGUCUGUAGCUAGACUGCC [G2A G17A G30U G35A] | 0.09
18 | GACAGAGCACAACACAGCGUGGCACACUGGCUGUGGCUCGACUGCC [G2A U9A A25C G27C A39C] | 0.28
19 | GACAGAGCUCAACACAGCGUGGCAAAGUGGCUGUAGCUCGACUGCC [G2A G35A A39C] | 0.09

Row | Variant | self-cleavage
20 | GACAUAGCUCAACACAGCGUGUCAAAGUGGCUGUGACUAGACUGCC [G2A G5U G22U G36A] | 0.1
21 | GACAGAGCUCAACACAGCGUGGCAAAGUGGCUGUGCCAAGACUGCC [G2A G36C U38A] | 0.2
22 | GACAGAUCUCAACACAGCGUGGCAAAGUGGCUGUGGCUGGACUGCC [G2A G7U A39G] | 0.72
23 | GACAGAGCUCAACACAGUGUGGGGAAGUGGCAGUGGCUGGACUGCC [G2A C18U C23G A24G U32A A39G] | 0.08
24 | GACAUACCUCAAAAAAGCGUGGCAAAGUGGCUGUGGUUAGACUGCC [G2A G5U G7C C13A C15A C37U] | 0.37
25 | GACAGAGCUCAACACAGCGUGGGCCAGUGGCUGUGGCUAGACUGCC [G2A C23G A24C A25C] | 0.15
26 | GACAGAGCUCAACACAGCGUGGCAAAGUGGCUGUGGCUAGAAGGCC [G2A C42A U43G] | 0.27
27 | GACAGAGCUCAACACAGCAUUGCAAAGUGCCUGUGGCUGGGGUGCC [G2A G19A G21U G30C A39G A41G C42G] | 0.13
28 | GACAGAGCUCAACACAGCUUGGCGAAGUGGCUAUGGCUAGACUGCC [G2A G19U A24G G33A] | 0.2
29 | GACAAAGCUCAACACAGCGUGGCAAACUGGCUUUGGCUAAACCGCC [G2A G5A G27C G33U G40A U43C] | 0.23
30 | GACAAAGCGCAACACAGCGUGGCAGAGUGGCUGUGGCUAGACUGCC [G2A G5A U9G A25G] | 0.26
31 | GACAGACCUAAACACAGCGUGGCAAAGUGGUUGUGGCUGGAAUGCC [G2A G7C C10A C31U A39G C42A] | 0.08
32 | GACAUAGCUAAACACAGCGUGGCAAAGUGGCUGUGGCUAGACUGCC [G2A G5U C10A] | 0.05
33 | GACAGAGCGCAACAAAGCGAGCCAACAUGGCUGUGGCUAGACUGCC [G2A U9G C15A U20A G22C A26C G27A] | 0.41
34 | GACAGAGCUCAACACAUCGUGGCAAAGUGGCUGUUGCAAGACUUCG [G2A G17U G35U U38A G44U C46G] | 0.09
35 | GACAGAGCUCAACACAGCUUGGCAAAGUGGCUCUGGGUAGACUGCC [G2A G19U G33C C37G] | 0.09
36 | GACAGACCUCAACACAGCGUGGCCAAGUGGCUGUGGCUAGACUGCC [G2A G7C A24C] | 0.42
37 | GACAGAGCUCAACACAGCCUGUCAAAGUGGCUGUGGCUAGACUGCC [G2A G19C G22U] | 0.07
38 | GACAGAGCUCAACACAGCGAGGCAAAGUGGCUAUAGCUAGACUGCC [G2A U20A G33A G35A] | 0.11

Row | Variant | self-cleavage
39 | GACAGAGCCCAACACAGCGUGGCAAAGUGGCUGUGGGUAGACUGCC [G2A U9C C37G] | 0.03
40 | GACAGAGCUCAACACAGCGUGGCAAAGUGGCUGUCACUAGACUGCC [G2A G35C G36A] | 0.36
41 | GACAGAGCUCAACACAGUGUGGCAAAGUGGCUGUGGCUAGACUUCC [G2A C18U G44U] | 0.3
42 | GACAGAGCUCAACACAGCGCGGCAAAGUGGUUGUGGCUAGACUGCC [G2A U20C C31U] | 0.29
43 | GACAGAGCUCAACACAGCGUGGCAAAGUGGUUGUGGCUAAACUGCC [G2A C31U G40A] | 0.04
44 | GACAAAAAUCGACACAGCGUGGCAAAGUGGCUGUGGCUAGUCUGCC [G2A G5A G7A C8A A11G A41U] | 0.11
45 | GACAGAGCACAACACAGCGCGGCAAAGUGGCUGUGGCUAGACUGCC [G2A U9A U20C] | 0.13
46 | GACAGAGCUCAACACAGCGUGGUAAAGUGGCUGUGGCUAGAAUGUC [G2A C23U C42A C45U] | 0.9
47 | GACAGAGCUCAACACAGGGUGGCAAAGUGGCUGGGGCUACACUGCC [G2A C18G U34G G40C] | 0.08
48 | GACAGAGCUCAACACAGCCUGACAAAGUGGCUGUGGCUAGACAGCC [G2A G19C G22A U43A] | 0.05
49 | GACAGAGCUCAACACAGCGUAGCAAAGUGGCUGUGGCUAGCCUACC [G2A G21A A41C G44A] | 0.19
50 | GACAGAGCUCAACACAGCGUGGUAAAGUGGCAGUGGCUAGACUGCC [G2A C23U U32A] | 0.49
51 | GACAGAGCACAACACAUCGUGGCAAAGUGGCUGUUGCAACACUGCC [G2A U9A G17U G35U U38A G40C] | 0.01
52 | GACAGAGCUCAACACAUCGUGGCAAAGUGGCUAUGGCUAGGCUGCC [G2A G17U G33A A41G] | 0.11
53 | GACACAGCUCAACACAGCGUGGCAAAGUGGCUGUGGGUAGACUGCC [G2A G5C C37G] | 0.04
54 | GACAGAGCUCAACACAGCGUGGCAAACUGGGUGUGGCUAGACUGCC [G2A G27C C31G] | 0.14
55 | GACAGAACUCAACACAGCUUGGCAAAGUGGCUGUCGCUAGACUGCC [G2A G7A G19U G35C] | 0.13
56 | GACAUAACUCAACACAGCGUGGCAAAGUGGCUGUGGCUAGACUGCC [G2A G5U G7A] | 0.67
